Measured values from PubChem BioAssay AID624170 (National Center for Advancing Translational Sciences (NCATS), 2012).
The campaign covered roughly 410,000 compounds. About 850 (0.21%) were called active. Inconclusive results, whose numbers are uncertain, are shown with a selection of clear calls. The call rests on the fitted dose curve; in most records, active means well fitted inhibition curve with a large enough effect; inconclusive means small, poorly fitted or top-dose-only effect, or another doubt; inactive means no such curve, though single readings can be large or run the other way. No potency is given beside an inconclusive call; the fits are too rough.

These compounds were tested against Glutaminase kidney isoform, mitochondrial (Homo sapiens) (UniProt O94925) (assay: qHTS for Inhibitors of Glutaminase (GLS)). Settings: GLS enzymatic activity, qHTS titration; series mostly up to 45.5 µM; activity change, negative = inhibition: at the top concentration.
Sequence of UniProt O94925 (O94925 whole entry, looked up, canonical isoform): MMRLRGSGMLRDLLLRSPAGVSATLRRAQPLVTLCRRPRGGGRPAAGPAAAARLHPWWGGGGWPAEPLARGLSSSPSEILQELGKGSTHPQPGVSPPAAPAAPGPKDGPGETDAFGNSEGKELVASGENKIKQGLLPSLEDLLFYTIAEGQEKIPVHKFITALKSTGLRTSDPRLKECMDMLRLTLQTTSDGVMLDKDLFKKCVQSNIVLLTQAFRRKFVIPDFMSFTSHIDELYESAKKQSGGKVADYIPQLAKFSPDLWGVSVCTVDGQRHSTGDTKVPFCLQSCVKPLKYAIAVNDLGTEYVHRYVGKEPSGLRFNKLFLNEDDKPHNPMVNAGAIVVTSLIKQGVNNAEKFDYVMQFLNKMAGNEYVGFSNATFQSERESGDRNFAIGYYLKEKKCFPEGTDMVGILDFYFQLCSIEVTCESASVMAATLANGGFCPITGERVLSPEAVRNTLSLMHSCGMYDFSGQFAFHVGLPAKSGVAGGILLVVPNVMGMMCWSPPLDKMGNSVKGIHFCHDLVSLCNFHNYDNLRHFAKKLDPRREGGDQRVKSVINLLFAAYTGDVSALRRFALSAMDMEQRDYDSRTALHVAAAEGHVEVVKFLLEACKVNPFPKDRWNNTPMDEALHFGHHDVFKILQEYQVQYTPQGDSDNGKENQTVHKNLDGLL
Summary of the method: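 hKGA in 45 mM KH2PO4 (pH 8.2), 0.02% Tween-20 with compound, then 1mM L-Glutamine (stock as added) plus glutamate oxidase/HRP/Amplex red coupling mix. Fluorescence read initially and after 30 min at RT; signal change reflects glutamate formation.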
On the % scale 0 is the no-effect control and ±100 the full control effect; potency means the concentration at half of the fitted maximal effect; tags describe the fitted curve by direction and shape.

| Compound | activity change, negative = inhibition | Potency |
| --- | --- | --- |
| O=C(c1cc([N+](=O)[O-])ccc1Cl)N1CCN(c2ccccc2)CC1 | inactive: 4.81% |  |
| O=C(O)c1cccc(NN=C2c3ccccc3-c3ccccc32)c1 |  | inconclusive [inhibitor, single point] |
| CCOC(=O)c1cc(CC)sc1/N=C/c1c(O)ccc2ccccc12 |  | inconclusive [inhibitor, single point] |
| Clc1ccc2c(c1)C(N1CCNCC1)Cc1ccccc1S2 (centres undefined) | inactive: 7.01% |  |
| CC(=O)/C=C1/C(=O)Nc2ccccc21 |  | inconclusive [inhibitor, single point] |
| Cc1ccc(N=Cc2cc(Br)cc(Cl)c2O)cc1 |  | inconclusive [inhibitor, single point] |
| S=c1[nH]nc(-c2ccco2)n1/N=C/c1ccc(Cl)c(Cl)c1 |  | inconclusive [inhibitor, single point] |
| O=[N+]([O-])c1cc(Cl)cc(/C=N/Nc2nc3ccccc3s2)c1O | inactive: 0% |  |
| Nc1nonc1-c1nc2ccccc2n1Cc1ccc(Br)cc1 | inactive: -2.73% |  |
| O=C(Nc1cccc(-c2nnc(-c3ccco3)o2)c1)C(c1ccccc1)c1ccccc1 | inactive: -0.364% |  |
| CC(=O)c1c(C(C)=O)c(C)n(NC(=O)c2ccncc2)c1C |  | inconclusive [inhibitor, single point] |
| O=C(Cn1sc2ccccc2c1=O)Nc1ccc(Cl)cc1 |  | active: 7.08 µM |
| O=c1oc2ccccc2c(Nc2cccc(O)c2)c1[N+](=O)[O-] | inactive: 40.4% |  |
| COc1ccccc1CCNC(=O)Cc1c(C)c2c(O)cc(C)cc2oc1=O | inactive: -10.9% |  |
| O=C(Nc1n[nH]c(=S)s1)c1ccc2ccccc2c1 |  | inconclusive [inhibitor, partial curve, poor fit] |
| O=[N+]([O-])c1cc(/C=N/N2CCN(c3ccccc3)CC2)ccc1Cl | inactive: 3.86% |  |
| COc1ccc(OC)c(NC(=O)Nc2cccc(OCc3cc(=O)n4cc(C)ccc4n3)c2)c1 |  | inconclusive [inhibitor, single point] |
| O=C1N/C(=N/O)S/C1=C\c1ccccc1-n1cccn1 |  | inconclusive [inhibitor, partial curve] |
| O=C(O)CSc1cc(NS(=O)(=O)c2cccc([N+](=O)[O-])c2)c2ccccc2c1O |  | inconclusive [inhibitor, single point] |
| CC(C)CC1C(C#N)=C(N)Oc2n[nH]c(-c3ccccc3)c21 (centres undefined) |  | inconclusive [inhibitor, single point] |
| Cc1ccc(N/C=C(\[N+](=O)[O-])S(=O)(=O)c2ccccc2)cc1 |  | inconclusive [inhibitor, single point] |
| N#CN=C1SCCS1 |  | inconclusive [inhibitor, single point] |
| O=C(Oc1ccccc1N1CCOCC1)c1sccc1Br |  | inconclusive [inhibitor, single point] |
| COc1ccc(O)c(/C=N/Nc2nc(C)cc(-c3ccccc3)n2)c1 |  | inconclusive [inhibitor, partial curve, poor fit] |
| O=C(O)c1nccnc1C(=O)Nc1ccccc1-c1ccccc1 |  | inconclusive [inhibitor, full curve, poor fit] |

| Compound | activity change, negative = inhibition | Potency |
| --- | --- | --- |
| CN=c1scc(-c2c[nH]c3ccccc23)n1C | inactive: -2.87% |  |
| CCOc1cc(/C=N/N2CCN(Cc3ccccc3)CC2)ccc1O |  | inconclusive [inhibitor, full curve] |
| CCCCOC(=O)Nc1ccccc1C(=O)OC |  | inconclusive [inhibitor, single point] |
| O=C(O)c1ccc2c(=O)n3cc(C(=O)c4ccccc4O)cc(Cl)c3nc2c1 |  | inconclusive [inhibitor, single point] |
| CC(=C1C(=O)c2ccccc2C1=O)N1CCN(c2ccc(F)cc2)CC1 | inactive: 33.5% |  |
| COc1ccc(/C=C2\C(=O)ON=C2c2ccccc2)cc1OC | inactive: 19.5% |  |
| COc1nc(-c2ccc(Cl)cc2)ccc1-c1noc(-c2ccco2)n1 | inactive: -9.21% |  |
| O=C(CSc1ccccc1)Nc1ccc(S(=O)(=O)NCC2CCCO2)cc1 (centres undefined) | inactive: -3.99% |  |
| COC(=O)c1ccc(NCc2cc(O)ccc2O)cc1 |  | inconclusive [inhibitor, single point] |
| COc1ccc(N=Cc2nc(-c3ccccc3)oc2OC(C)=O)cc1 |  | inconclusive [inhibitor, single point] |
| CCOC(=O)C1=C(COC(=O)/C=C/c2ccco2)NC(=O)NC1C (centres undefined) |  | inconclusive [inhibitor, single point] |
| O=C(OC1CCOC1=O)c1cncc(Br)c1 (centres undefined) | inactive: 6.76% |  |
| Cc1cc(C(=O)NN=C2CC(=O)CC(C)(C)C2)c(C)o1 |  | inconclusive [inhibitor, single point] |
| CCc1ccc(C(C)NC(=O)/C(C#N)=C\c2cn[nH]c2-c2ccccc2)cc1 (centres undefined) | inactive: -3.37% |  |
| O=C(N/N=C/c1ccc(C(F)(F)F)cc1)c1ccncc1 | inactive: -2.85% |  |
| O=C(NC1CCCC1)c1ccc2nc(-c3ccco3)c(-c3ccco3)nc2c1 |  | inconclusive [inhibitor, single point] |
| N#CCC(=O)Nc1ccc(C(=O)NNC(=S)NC2CC2)cc1 |  | inconclusive [inhibitor, partial curve] |
| O=c1[nH]cnc2sc3c(c12)CCN(Cc1ccccc1)C3 |  | inconclusive [inhibitor, single point] |
| COc1ccccc1NC(=O)c1nc(S(=O)(=O)Cc2ccccc2)ncc1Cl |  | inconclusive [inhibitor, partial curve] |
| COCC(C)OC(=O)/C(C#N)=C\c1coc2ccc(C)cc2c1=O (centres undefined) |  | inconclusive [inhibitor, single point] |
| O=C(CSCc1c(Cl)cccc1Cl)Nc1ccccc1-c1ccccc1 |  | inconclusive [inhibitor, single point] |
| O=S(=O)(NCC1CCN(S(=O)(=O)c2ccccc2)CC1)c1ccccc1 | inactive: 4.86% |  |
| CN1CCN(S(=O)(=O)c2ccc(NC(=S)NC(=O)c3ccccc3)cc2)CC1 | inactive: 18.7% |  |
| CCCN(CCC)CC(O)CN(c1cc([N+](=O)[O-])ccc1OC)S(=O)(=O)c1ccccc1 (centres undefined) | inactive: 5.79% |  |
| C/C(CC(=O)Nc1ccccn1)=N\NC(=O)c1cccc(C)c1 |  | inconclusive [inhibitor, partial curve, poor fit] |

| Compound | activity change, negative = inhibition | Potency |
| --- | --- | --- |
| c1ccc(-n2cnc3cc(NCc4cccs4)ccc32)cc1 | inactive: -10.4% |  |
| CCOc1ccccc1/C=C/c1nc2ccccc2[nH]c1=O |  | inconclusive [inhibitor, single point] |
| Cn1c(N)nc2nc(CCc3ccccc3)c(=O)[nH]c2c1=O |  | inconclusive [inhibitor, partial curve, poor fit] |
| O=C(CSc1ncccc1-c1nc2ccccc2[nH]1)NCc1ccco1 |  | inconclusive [inhibitor, single point] |
| CCCC(=O)Nc1ccc(N2CCOCC2)cc1 |  | inconclusive [inhibitor, single point] |
| Cc1cccc(NC(=O)CCc2c(C)nc3c(c(C)nn3C(C)(C)C)c2C)c1C | inactive: 5.04% |  |
| CN(C)N1C(N)=C(C#N)C(c2ccccc2Cl)C2=C1CCCC2=O (centres undefined) |  | inconclusive [inhibitor, partial curve, poor fit] |
| CC(C)c1ccc(NC2CCCN(C(=O)CC3CCCC3)C2)cc1 (centres undefined) |  | inconclusive [inhibitor, single point] |
| CCCCN(C(=O)CNC(=O)c1cccs1)C(C(=O)NC1CCCC1)c1ccncc1 (centres undefined) |  | inconclusive [inhibitor, single point] |
| CSc1ccc(Cl)c(C(=O)NCCOc2ccccc2)c1 |  | inconclusive [inhibitor, single point] |
| Oc1ccc(C2C[C@H]3CC[C@@H]2C3)cc1O (some centres undefined) |  | inconclusive [inhibitor, full curve, poor fit] |
| COc1ccccc1NC(=O)C(=O)NCCC1CCCCN1S(=O)(=O)c1cccs1 (centres undefined) |  | inconclusive [inhibitor, single point] |
| CCc1ccccc1Nc1ccc(C(=O)O)cc1N |  | inconclusive [inhibitor, single point] |
| CCc1ccc(S(=O)(=O)c2c(C(=O)c3ccccc3)cnc3ccc(CC)cc23)cc1 | inactive: 2.17% |  |
| CCOC(=O)COc1c(Cl)cc(/C=C2\N=C(C)OC2=O)cc1OC |  | inconclusive [inhibitor, partial curve, poor fit] |
| Cc1ccccc1NNC(N)=S |  | inconclusive [inhibitor, partial curve] |
| CSc1ccccc1OCc1cc(C(=O)N(C)CCn2nc(C)cc2C)no1 |  | inconclusive [inhibitor, partial curve] |
| Fc1ccc(CCNC(=S)Nc2ccc(F)c(Cl)c2)cc1 | inactive: 0.963% |  |
| Cc1cccc2sc(N(CCCN(C)C)C(=O)COc3ccccc3)nc12 | inactive: 4.12% |  |
| COc1cccc(CNC(=O)N2CCN(S(=O)(=O)c3ccc(Cl)cc3)CC2)c1 | inactive: -17.7% |  |
| CNC(=S)N/N=C/c1cn(CCOc2cccc(OC)c2)c2ccccc12 |  | inconclusive [inhibitor, single point] |
| O=C(COC(=O)c1ccc2ncsc2c1)Nc1ncc(Cl)cc1Cl |  | inconclusive [inhibitor, partial curve, poor fit] |
| CC(C)(C)Cc1c(-c2ccc(Cl)cc2)nc2ccc(Cl)cn12 | inactive: -1.71% |  |
| CC(=O)Nc1ccc(Oc2cc(NC(C)=O)cc([N+](=O)[O-])c2)cc1 |  | inconclusive [inhibitor, single point] |
